20 molecules from paper PMC9911399, “Two distinct binding modes provide the RNA-binding protein RbFox with extraordinary sequence specificity” can be followed below.

B1: UCGAUGU (DNA:RNA)
RNA: GGGAGACCGGAAUUCAGAUUGUCCUCGAUGUUUAAAUCCCGUCGUAGCCACCA
DNA 1: CAATCTGAATTCCGGTCTCCC
DNA 2: TGGTGGCTACGACGGGATT
B2: AUCUAAA (DNA:RNA)
RNA: GGGAGACCGGAAUUCAGAUUGUCCAUCUAAAUUAAAUCCCGUCGUAGCCACCA
DNA 1: CAATCTGAATTCCGGTCTCCC
DNA 2: TGGTGGCTACGACGGGATT
B3: ACUGUCA (DNA:RNA)
RNA: B2 RNA with U26C, C27U, U28G, A29U, A30C
DNA 1: CAATCTGAATTCCGGTCTCCC
DNA 2: TGGTGGCTACGACGGGATT
B4: UUGUUUA (DNA:RNA)
RNA: B2 RNA with A25U, C27G, A29U, A30U
DNA 1: CAATCTGAATTCCGGTCTCCC
DNA 2: TGGTGGCTACGACGGGATT
B5: UCGGGAA (DNA:RNA)
RNA: B1 RNA with A28G, U29G, G30A, U31A
DNA 1: CAATCTGAATTCCGGTCTCCC
DNA 2: TGGTGGCTACGACGGGATT
B6: UAAAGGG (DNA:RNA)
RNA: B1 RNA with C26A, G27A, U29G, U31G
DNA 1: CAATCTGAATTCCGGTCTCCC
DNA 2: TGGTGGCTACGACGGGATT
B7: CAGGUAA (DNA:RNA)
RNA: B2 RNA with A25C, U26A, C27G, U28G, A29U
DNA 1: CAATCTGAATTCCGGTCTCCC
DNA 2: TGGTGGCTACGACGGGATT
B8: UAGCCAU (DNA:RNA)
RNA: B1 RNA with C26A, A28C, U29C, G30A
DNA 1: CAATCTGAATTCCGGTCTCCC
DNA 2: TGGTGGCTACGACGGGATT
B9: AACGAUU (DNA:RNA)
RNA: B2 RNA with U26A, U28G, A30U, A31U
DNA 1: CAATCTGAATTCCGGTCTCCC
DNA 2: TGGTGGCTACGACGGGATT
B10: CGAAGUG (DNA:RNA)
RNA: B1 RNA with U25C, C26G, G27A, U29G, G30U, U31G
DNA 1: CAATCTGAATTCCGGTCTCCC
DNA 2: TGGTGGCTACGACGGGATT
B11: GGAGAGA (DNA:RNA)
RNA: B2 RNA with A25G, U26G, C27A, U28G, A30G
DNA 1: CAATCTGAATTCCGGTCTCCC
DNA 2: TGGTGGCTACGACGGGATT
B12: ACCGCCG (DNA:RNA)
RNA: B2 RNA with U26C, U28G, A29C, A30C, A31G
DNA 1: CAATCTGAATTCCGGTCTCCC
DNA 2: TGGTGGCTACGACGGGATT
B13: ACGAAAG (DNA:RNA)
RNA: B2 RNA with U26C, C27G, U28A, A31G
DNA 1: CAATCTGAATTCCGGTCTCCC
DNA 2: TGGTGGCTACGACGGGATT
B14: AAAUUAU (DNA:RNA)
RNA: B2 RNA with U26A, C27A, A29U, A31U
DNA 1: CAATCTGAATTCCGGTCTCCC
DNA 2: TGGTGGCTACGACGGGATT
B15: UUGGCAA (DNA:RNA)
RNA: B2 RNA with A25U, C27G, U28G, A29C
DNA 1: CAATCTGAATTCCGGTCTCCC
DNA 2: TGGTGGCTACGACGGGATT
B16: GUUCCUG (DNA:RNA)
RNA: B2 RNA with A25G, C27U, U28C, A29C, A30U, A31G
DNA 1: CAATCTGAATTCCGGTCTCCC
DNA 2: TGGTGGCTACGACGGGATT
B17: ACACAAC (DNA:RNA)
RNA: B2 RNA with U26C, C27A, U28C, A31C
DNA 1: CAATCTGAATTCCGGTCTCCC
DNA 2: TGGTGGCTACGACGGGATT
B18: AUAAUCA (DNA:RNA)
RNA: B2 RNA with C27A, U28A, A29U, A30C
DNA 1: CAATCTGAATTCCGGTCTCCC
DNA 2: TGGTGGCTACGACGGGATT
B19: CGGGAGG (DNA:RNA)
RNA: B1 RNA with U25C, C26G, A28G, U29A, U31G
DNA 1: CAATCTGAATTCCGGTCTCCC
DNA 2: TGGTGGCTACGACGGGATT
B20: GCGACGG (DNA:RNA)
RNA: B1 RNA with U25G, U29C, U31G
DNA 1: CAATCTGAATTCCGGTCTCCC
DNA 2: TGGTGGCTACGACGGGATT

Positions count from the first letter of the chain named. Some of the results follow.

The target of the assay is T1, RBFOX1 RRM RbFoxmut (Fox-RRM*) (Homo sapiens, UniProt Q9NWB1 109-208, R118D;E147R;N151S;E152T).
T1 sequence: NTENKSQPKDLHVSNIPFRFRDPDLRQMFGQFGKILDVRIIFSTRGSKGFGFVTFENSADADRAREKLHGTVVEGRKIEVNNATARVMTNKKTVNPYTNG
Nature of the assay: EMSA; HiTS-Eq, 1 nM pool, 10 min; buffer printed only for the single-RNA assays: 10 mM Tris pH 7.5, 150 mM NaCl, 3.4 mM EDTA, 0.001% NP-40, 30 C. Particulars: tags: His6 N-terminal (pET28a); label: 5' 32P. Summed up: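 Purified RbFox RRM (wild type or mutant) was equilibrated for 10 min in 50 µL with 1 nM of a 5′-radiolabelled pool of RNA with 7 randomized nucleotides, its flanks annealed to DNA oligonucleotides, across increasing protein concentrations. Free RNA was separated by 8% native PAGE, excised, reverse-transcribed, PCR-barcoded and sequenced on an Illumina HiSeq 2500. Relative association constants came from read-count changes of each variant against the control reaction, normalised to the cognate motif.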
As to B1, the binding signal was 0.119 KA relative to UGCAUGU. Next, B2: 0.114 KA relative to UGCAUGU; B3: 0.101 KA relative to UGCAUGU; B4: 0.178 KA relative to UGCAUGU. The value for B5 was 0.115 KA relative to UGCAUGU.

Consider B6, for which the binding signal was 0.0714 KA relative to UGCAUGU. The value for B7 was 0.106 KA relative to UGCAUGU; that for B8 was 0.0774 KA relative to UGCAUGU. Next, B9: 0.0525 KA relative to UGCAUGU; B10: 0.101 KA relative to UGCAUGU; B11: 0.073 KA relative to UGCAUGU. Take B12: the binding signal was 0.0903 KA relative to UGCAUGU. Next, B13: 0.103 KA relative to UGCAUGU. As to B14, the binding signal is 0.099 KA relative to UGCAUGU. The value for B15 was 0.0846 KA relative to UGCAUGU; that for B16 was 0.094 KA relative to UGCAUGU; that for B17 was 0.0726 KA relative to UGCAUGU. The value for B18 was 0.0919 KA relative to UGCAUGU. The value for B19 was 0.121 KA relative to UGCAUGU; that for B20 was 0.0987 KA relative to UGCAUGU.
